The text below walks through data of patent US20240400717A1, “Antibody Binding to CHI3L1 for Treating Cancer” (National Cheng Kung University, priority 2021, published 2024).

For this test, the target named is T1, CHI3L1 binding to IL-13Rα2 on A549 cell line (Homo sapiens, UniProt P36222).
T1 construct: host or cells: A549 cells carry the receptor
Briefly: Functional screen: block of CHI3L1 binding to IL-13Rα2 on A549 cell line. The format is cell-based. As to conditions: A549 cells, compared with CHI3L1 only. From the text: CHI3L1 is known to associate with different receptors, such as IL-13Rα2 (He et al. 2013), CRTH2 (Zhou et al. 2015), TMEM219 (Lee et al. 2016), and galectin-3 (Zhou et al. 2015). […] Therefore, purified antibody leads were functionally screened for their ability to block CHI3L1 binding to IL-13Rα2 on A549 cell line (FIG. 3A). […] The sequences and defied CDR regions among those monoclonal antibodies are listed and summarized in the sequences list (SEQ ID NOs: 1 to 88) and Table 2, respectively. […]

T1 sequence (P36222 22-383): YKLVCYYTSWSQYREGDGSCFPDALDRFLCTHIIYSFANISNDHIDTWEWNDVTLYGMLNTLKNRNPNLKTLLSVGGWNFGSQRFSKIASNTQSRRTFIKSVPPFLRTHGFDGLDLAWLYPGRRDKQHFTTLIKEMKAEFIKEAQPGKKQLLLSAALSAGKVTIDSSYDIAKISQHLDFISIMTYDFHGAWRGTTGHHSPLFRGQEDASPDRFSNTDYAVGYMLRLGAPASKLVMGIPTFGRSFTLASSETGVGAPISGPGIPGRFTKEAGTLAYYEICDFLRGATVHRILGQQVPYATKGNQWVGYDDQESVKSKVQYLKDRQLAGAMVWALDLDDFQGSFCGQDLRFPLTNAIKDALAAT

B1: #R4-39: fully human anti-CHI3L1 mAb, Table 1 No. 26; heavy chain SEQ ID NO: 17, light chain SEQ ID NO: 18 (antibody, listed as Homo sapiens)
VH: EVQLVQSGAEVRKPGESLKISCKASGYRFTNYWIGWVRQMPGKGLEWMGIIYPDDSNTKYSPSFQGQVTISVDKPITTAYLQWSSLKASDTAMYYCVRLDTYYYDSSGFPFDAFDIWGQGTMVTVSS
light: DIQMTQSPSSLSAFVGDRVTITCQASQDISTFLSWYQQKPGKAPKLLIYDATNLETGVPSRFSGRGSGTDFTFTISSLQPEDVATYFCQQYDFLPLSFGGGTKVEIRRTVAAPSVFIFPPSDEQLKSGTASVVCLLNNFYPREAKVQWKVDNALQSGNSQESVTEQDSKDSTYSLSSTLTLSKADYEKHKVYACEVTHQGLNSPVTKSFNRGEC
Take B1: the CHI3L1 neutralizing activity entry is reported as “best neutralizing activity”.
